# Source: the RNAGym collection of RNA variant scans (doi:10.7554/elife.90254)
# The source gives no read counts; variants with many changes may rest on few reads.
# B1: LINE1-mini (parent)
# chain: GGCAGAGCUCAACACAGCGUGGCAAAGUGGCUGUGGCUAGACUGCC
# Variants of: B1
# Test: self-cleavage, relative activity (ratio to wild type); higher = more cleavage; in vitro, sequencing; the parent is a self-cleaving ribozyme
row,Variant,self-cleavage
1,GGCACAGCUCAACACAGUGUGGCAAAGUUGCUGUGGCUAGACUGCC [G5C C18U G29U],0.04
2,GGCAAAGGUCAACACAGCGUGGCAAAGUGGCUGUGGCCAGACUGUC [G5A C8G U38C C45U],0.07
3,GGCAGAGCUCAACACAGCGUGCCAAAGUGACUCUGGCUAGACUGUC [G22C G30A G33C C45U],0.06
4,GGCAGAGCUCAAUUCAGCGUGGCAAAGAGGCUGUGGCUAGACUGCC [C13U A14U U28A],0.06
5,GGCAGAGCUUAACACAGCGUGGCAAAGUGGCUGUGCCUCGAAUGCC [C10U G36C A39C C42A],0.05
6,GGCAGAGCUCAACACAGCGUGGAAAAGUCGCUGUGGGUAGACAGCC [C23A G29C C37G U43A],0.01
7,GGCAGAGCUCAACUCAGAGUGGCAAAGUGCCUGUGGCAAGACUGCC [A14U C18A G30C U38A],0.09
8,GGCAGAGCUCAACACGGCGUGGCAAAGCGGUUGUGGCUAGACUGCC [A16G U28C C31U],0.01
9,GGCUGACCUCAACAAAGCGUGGCAAAGUGGCUCUGGCGAGACUGCC [A4U G7C C15A G33C U38G],0.07
10,GGCAGAGCUCAAUACACCGUGGCAUAGUGGCUGUGGCUAGACAGCC [C13U G17C A25U U43A],0.13
11,GGCAGAGCUUAACACAGCGUGGCAAACUGGCAGUGGCUAGACUGCC [C10U G27C U32A],0.05
12,GGAAGAGCUCAACACAGCGUGGCAAAGUUGCUCUGGCUAGACUGCC [C3A G29U G33C],0.14
13,AGCAGAGUUCAGCAAAGCGUGGCAAUGUGGCUGUCGCUAGAGUGCC [G1A C8U A12G C15A A26U G35C C42G],0.73
14,GACAGAGCUCAACACAGCGUGGCCAAGUGGCUGUGGCUAGACUGUC [G2A A24C C45U],0.22
15,GGCAGAGCUCAACACAGCGUGACAAAGUGUCUGUGCCUAGACUGCC [G22A G30U G36C],0.03
16,UGAAAAGCUCUACACAGCCUGGCAAAGUGGCCGUGGCUUGACUGCC [G1U C3A G5A A11U G19C U32C A39U],0.05
17,GGCAGAGCUCAACACAGCGUGGCAAAGGGGCUGUGGCUAGACUAUC [U28G G44A C45U],0.02
18,GGCAGAGCUCAACACAGCGUGGCAAAGUGUCGGCGGCUAGACUGCU [G30U U32G U34C C46U],0.09
19,GGCAGAGCUCAACACGGAAUGGCUAAGUGGCUGUGGCUAGACUGCC [A16G C18A G19A A24U],0.12

row,Variant,self-cleavage
1,GGCAGAGCUCGACACAGCUUGGCAAAGUAGCUUUGGCUAGAUUGUC [A11G G19U G29A G33U C42U C45U],0.01
2,GGCAGAGCUCAACACAGCGUGGCAAAGUGAGUGUGGGCAGACUGCC [G30A C31G C37G U38C],0.01
3,CGCAGAGCUCAACACAGCGUGGCAAAAUGGCUGUGGCUAAACCGCC [G1C G27A G40A U43C],0.01
4,GGCAGAGGUCAACACGGCGUGGCAAAGUGGGUGUGGCUAGACUUCC [C8G A16G C31G G44U],0.06
5,GCCAGAGCUCAACACAGUGUGGCACAGUGGCUGUGGAUAGACUGCC [G2C C18U A25C C37A],0.1
6,GGCCGAGCUCAACAAAGUGUGGCAAAGUGGCUGUGGCUAGACUGCC [A4C C15A C18U],0.09
7,GGCAGAGCUCAACCCCUCGUGGCAAAGUGGCUGUGGCUAGACUGCC [A14C A16C G17U],0.09
8,GGCAGAGCUCAAGACUGCGAGGCCAAGCGGCUGUGGCUAGACUGCC [C13G A16U U20A A24C U28C],0.06
9,GGCAUAGCUCUACACAGCGAGGCAAAGUGGCUGUGGCUAGACUGCC [G5U A11U U20A],0.02
10,GGCAGAGCUCACCACUGCCUGGAAAAGUGGCUGUGGCUAGAGUGCC [A12C A16U G19C C23A C42G],0
11,GGCAGAGCUCAACCCAGCGUGGCAAAAUGGAUGUGGCUCGACUGCU [A14C G27A C31A A39C C46U],0
12,GGCAGAGCUCAACACAGCGUGGCAAAGUGGCUAUGGUUGGACUGCC [G33A C37U A39G],0.02
13,GGCAGAGCUCAGCACAGCGUAGCAAACUGGCUGUGGCUAUAUUGCC [A12G G21A G27C G40U C42U],0.03
14,GGCAGAGCUCAACACCGCGUGGCAGAGUGGCUGUGCCUAGACUGCC [A16C A25G G36C],0.03
15,GGCAGAGCUCCACGCAGCGUGGCAACGUGGCUCUGGCAAAACGGCC [A11C A14G A26C G33C U38A G40A U43G],0.01
16,GGCAGAGCUCGACACAGCGUGGCAAAGUGACUUUGGCUAGACCGCG [A11G G30A G33U U43C C46G],0
17,GGCAGAGCUCACCACAGCGGGGCUAAGUGGCUGAGGCUAGACUGCC [A12C U20G A24U U34A],0
18,GGCAGAGCUAAACACAGCGUGGCAAAGUUGCUGUGGAUAGACUGCC [C10A G29U C37A],0
19,GGCAGAGCUCAACACGGCGUGACAAAGUGGCUGUGGUAAGACUCCC [A16G G22A C37U U38A G44C],0.06

row,Variant,self-cleavage
1,GGGAGAGAUCAACACAGCGUGGCUAAGUGGCUGUGGCUAGAAUGCC [C3G C8A A24U C42A],0.12
2,GGCAGAGCUCAACACAGCGGGGCUAAGUGGCUGUGGCUAGACUGGC [U20G A24U C45G],0.05
3,GGCAGAGCCCAACACAGCGUAGCAAAGUGGAUGUGGCUAGACUGCC [U9C G21A C31A],0.03
4,GGCAGAACUCAACACAGCGUGGUAAAGUGGCUGUGGCUAUACUGCC [G7A C23U G40U],0.23
5,GGCAAGGCUCAACACAGCGUAGCAAAGUGGCUGUGGCUAGACUGCC [G5A A6G G21A],0.05
6,GGCAGAGCUCCACACAGCGUGGCAAAGUGGCUGUGUUUAGACUGCC [A11C G36U C37U],0.01
7,GCCAGAGCUCAACACAGCGACGCAAAGUGGCUGUGGCUAGACUGCC [G2C U20A G21C],0.1
8,GGCAGAGCUCAAAACAGAGUGGCAUAGUGGAUGUGGCUAGACUUCC [C13A C18A A25U C31A G44U],0
9,UGCAGAGCUCAACACAGCGUAGCAAAGUGGCUGUGGCUAGAGUGUC [G1U G21A C42G C45U],0.05
10,GGCAGAGCUCGACACAGCGUGGCAAAGUGGUUGUGGCUAGACUCCC [A11G C31U G44C],0.01
11,GGCAGAGAUCAACUCAGCUUGGCAUAGUGGCUGUGACUAGACUGCC [C8A A14U G19U A25U G36A],0.06
12,GGCAGAGCUCAACACAGCUUAGCAAGCUAGCUGUGGCUAGACUGCC [G19U G21A A26G G27C G29A],0.51
13,GGCAGAGCUCAAGACAGCGUGACAAAGUGGCUGCGGCGUGACUGCC [C13G G22A U34C U38G A39U],0.26
14,GGCAGAGCUCAACAUAGGGUGGCACAGUAGCUGUGGCUAGUCUGCC [C15U C18G A25C G29A A41U],0.04
15,GGCAGAGCUCAGUACUGCGUGGCAAAGUGGCUGUGGCUAGACUGCC [A12G C13U A16U],0.02
16,GGCAGAGCUCAAAACAGUGUGGCAAAGGGGCUGUGGCUAGACUGCC [C13A C18U U28G],0.03
17,GGCAGAGAUCCACACAACGUGGCAAACUGGCUGUGGCUAGACCGCC [C8A A11C G17A G27C U43C],0.01
18,GGCAGAGCUCAACUCAGCGUGGCAACGUGGCUGUGGCUAGCCAGCU [A14U A26C A41C U43A C46U],0.04
